This passage reports EC50 results from ChEMBL document CHEMBL5335779, “The research progress of SARS-CoV-2 main protease inhibitors from 2020 to 2022” (Eur J Med Chem, 2023).

The subject of the assay is SARS-CoV-2. In words: microbe, parasite or virus in culture. The following applies: Severe acute respiratory syndrome coronavirus 2, nCoV-2019BetaCoV/Wuhan/WIV04/2019, Vero C1008.

What is called EC50 is the concentration giving half of the maximal effect. Read a high EC50 as a need for much substance. With `O=C[C@H](C[C@@H]1CCNC1=O)NC(=O)[C@H](Cc1ccccc1)NC(=O)c1cc2ccccc2[nH]1`, the EC50 turned out to be 290 nM.
Compound `CC(C)C[C@H](NC(=O)/C=C/c1ccccc1)C(=O)N[C@H](C=O)C[C@@H]1CCNC1=O` had an EC50 of 1060 nM.
